Assay results: PubChem BioAssay AID686978 (National Center for Advancing Translational Sciences (NCATS), 2013)
About 64,000 (15%) of roughly 420,000 compounds were called active. This list was built around the results that the source calls inconclusive (neither active nor inactive); the mix of calls is not that of the screen. Calls come from the whole dose curve; as a rule, active = well fitted inhibition curve with a large enough effect; inconclusive = small, poorly fitted or top-dose-only effect; inactive = flat fitted curve, though single readings scatter. Potencies of inconclusive entries are left out as doubtful fits.

Assay: qHTS for Inhibitors of human tyrosyl-DNA phosphodiesterase 1 (TDP1): qHTS in cells in absence of CPT; note: nearly all actives have a fitted effect of over 55% in size
Conditions: DT40 Tdp1-/- hTDP1 cells, no CPT, ATP luminescence, 48 h; activity change, negative = growth inhibition: at 46.2 µM (top of the series) unless noted
Procedure, shortened: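 Cells were dispensed at 400 per well, compounds added by pin tool, plates incubated ≥48 hr at 37 °C, then CellTiter-Glo added for 30 min at room temperature before luminescence reading. Line: DT40 Tdp1-/- complemented with hTDP1; camptothecin omitted.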
% is set by controls: 0 for no effect and ±100 for the full control effect; potency is the fitted concentration of half-maximal effect; tags give direction and shape of the fitted curve.

| Compound | Potency | activity change, negative = growth inhibition |
| --- | --- | --- |
| Cc1cc(Nc2cnc3ccccc3n2)n(-c2ccccc2)n1 | inconclusive [inhibitor, single point] |  |
| COC(=O)C1=C(C)NC(C)=C(C(=O)OC)C1c1cc2ccc(C)cc2[nH]c1=O | inconclusive [inhibitor, single point] |  |
| Cc1cc(-c2nnc3n2N=C(C(C)(C)C)CS3)n[nH]1 |  | inactive: -10.5% |
| CCOC(=O)N1CCN(S(=O)(=O)c2ccc3c(c2)SCC(=O)N3)CC1 | inconclusive [inhibitor, single point] |  |
| O=C(Nc1nccs1)c1cc2c(s1)CCCCC2 | inconclusive [inhibitor, single point] |  |
| CC1=N/C(=C/c2ccc([N+](=O)[O-])cc2)C(=O)N1c1ccc(Cl)cc1Cl | active: 25.9 µM |  |
| COCc1ccc(C(=O)NC2CCCc3c2cnn3-c2cc(C)cc(C)c2)s1 (stereo unspecified) | active: 20.6 µM |  |
| Cc1ccccc1OCC(=O)Nc1ccccc1C(=O)OCc1cc(=O)n2c(C)csc2n1 | active: 4.61 µM |  |
| COc1ccccc1C(=O)NCC(c1ccco1)N1CCc2ccccc21 (stereo unspecified) | active: 23.1 µM |  |
| CCN(Cc1ccccc1)C(=O)c1ccccc1C | inconclusive [inhibitor, partial curve, poor fit] |  |
| CN(Cc1ccon1)Cc1cn(C)nc1-c1cccc(Cl)c1 | inconclusive [inhibitor, single point] |  |
| COc1ccccc1CC(=O)c1ccc(OCc2ccccc2)cc1 | inconclusive [inhibitor, single point] |  |
| CC(Sc1nnc(Nc2ccccc2)s1)C(=O)Nc1nc(-c2ccccc2)cs1 (stereo unspecified) | inconclusive [inhibitor, single point] |  |
| CC(=O)N1CCN(S(=O)(=O)c2ccc(S(=O)(=O)NC3CCCCC3)cc2)CC1 | inconclusive [inhibitor, single point] |  |
| Cc1ccc2[nH]c3c(N4CCc5ccccc5C4)ncnc3c2c1 | active: 3.66 µM |  |
| CCCn1c2ccccc2c2nnc(SC(CC)C(=O)Nc3sc4c(c3C#N)CCCC4)nc21 (stereo unspecified) | inconclusive [inhibitor, partial curve] |  |
| CN(C)S(=O)(=O)c1ccc(N2CCCC2)c(C(=O)Nc2nccs2)c1 |  | inactive: -0.691% |
| Cc1ccc(NC(=O)c2ccc(OCC3CCCO3)cc2)nc1 (stereo unspecified) | inconclusive [inhibitor, single point] |  |
| CC1(C(=O)Nc2cccc(C(F)(F)F)c2)Cc2c(-c3cccc(C(F)(F)F)c3)ccnc2O1 (stereo unspecified) | inconclusive [inhibitor, single point] |  |
| CCCCc1c(O)nc(SCC(=O)N2CCCCC2)[nH]c1=O | inconclusive [inhibitor, single point] |  |
| COc1ccc(C(=O)Nc2ccnn2C2CCN(Cc3ccn[nH]3)CC2)cc1 |  | inactive: 16.3% |
| CCOC(=O)c1c(CN(CC)CC)oc2ccc(OC)cc12 | inconclusive [inhibitor, single point] |  |
| COc1ccc(C(CC(=O)Nc2ccc(OC)c(OC)c2)N2Cc3ccccc3C2=O)cc1 (stereo unspecified) | inconclusive [inhibitor, partial curve] |  |
| COc1ccc(NC(=S)NNC(=O)CNc2ccc(Cl)cc2)cc1 |  | inactive: -29.7% |

| Compound | Potency | activity change, negative = growth inhibition |
| --- | --- | --- |
| O=C(CCNC(=O)c1ccccc1)Nc1ccc(Cl)c(S(=O)(=O)N2CCCCC2)c1 | inconclusive [inhibitor, partial curve] |  |
| Cc1ccc(NC(=O)CC2SC(=NC3CCCCC3)NC2=O)cc1 (stereo unspecified) | inconclusive [inhibitor, partial curve, poor fit] |  |
| O=C1CCCCCC(=O)[C@H](O)C[C@H](c2ccccc2)O1 |  | inactive: -10.3% |
| O=C(CNC(=O)Cc1ccccc1)NCc1cccc(C(F)(F)F)c1 |  | inactive: -14.9% |
| O=C(Nc1cccc(C2=NCCN2)c1)Nc1cccc(C2=NCCN2)c1 | active: 7.31 µM |  |
| COc1cc(OC)c2c(C)cc(=O)oc2c1C(CCN1CCN(c2ccccc2)CC1)c1ccc2c(c1)OCO2 (stereo unspecified) | active: 20.6 µM |  |
| O=C(CSc1nnnn1-c1ccccc1)N1CCCc2ccccc21 |  | inactive: -16.4% |
| COc1ccccc1-c1noc(CCC(=O)N2CCN(c3cc(C)ccc3C)CC2)n1 | active: 14.6 µM |  |
| Cc1ccccc1CN1C(=O)C2(OCCCO2)c2ccccc21 | inconclusive [inhibitor, partial curve] |  |
| N#Cc1c2c(c(NCCN3CCOCC3)n3c1nc1ccccc13)CCCC2 | inconclusive [inhibitor, single point] |  |
| CCCn1nc(NC(=O)CC)c2cc3cccc(C)c3nc21 | inconclusive [inhibitor, single point] |  |
| COc1cccc(-c2ccccc2C2=CC(=O)CC(C)(C)C2=O)c1 |  | inconclusive: -31.7% [inhibitor] |
| Cc1cc(-c2ccccc2)nc(N/N=C/c2ccccc2F)n1 | inconclusive [inhibitor, single point] |  |
| COc1ccc(S(=O)(=O)N2CCCCCC2)cc1C(=O)NCCc1ccc(F)cc1 | inconclusive [inhibitor, single point] |  |
| Cn1c(C(=O)NCCC2=CCCCC2)cc2c(=O)n3ccccc3nc21 |  | inactive: -20.5% |
| CCc1ccccc1S(=O)(=O)Cc1ccc(C(=O)NCCc2ccccc2)o1 | inconclusive [inhibitor, single point] |  |
| Nc1cc(Br)cc2c1[nH]c(=O)c1ccccc12 |  | inactive: -18.7% |
| COCCCN(C(=S)NC(=O)C12CC3CC(CC(C3)C1)C2)c1c(N)n(Cc2ccccc2)c(=O)[nH]c1=O | inconclusive [inhibitor, partial curve] |  |
| CCOc1cc(N2CCOCC2)c(OCC)cc1NC(=O)COC(=O)CCc1c[nH]c2ccccc12 |  | inconclusive: -36.6% [inhibitor] |
| CC1(C)CC2CC(C)(CN2C(=O)CCCN2C(=O)c3ccccc3C2=O)C1 (stereo unspecified) |  | inconclusive: -30.8% [inhibitor] |
| Cc1cccc(N2CCN(c3ccc(N4C(=O)CCCC4=O)cc3[N+](=O)[O-])CC2)c1C | inconclusive [inhibitor, single point] |  |
| Fc1ccc(-c2nc3ccc(Br)cn3c2Cc2ccsc2)cc1 | inconclusive [inhibitor, single point] |  |
| O=C(NCCc1ccc(F)cc1)NC12CC3CC(CC(C3)C1)C2 | inconclusive [inhibitor, partial curve] |  |
| Cc1nn(CC(=O)NCCc2ccc(Cl)cc2)c(=O)c2cccn12 | inconclusive [inhibitor, single point] |  |

| Compound | Potency | activity change, negative = growth inhibition |
| --- | --- | --- |
| COc1ccc(C(=O)N2CCCC(c3ccccc3)C2)cc1 (stereo unspecified) | inconclusive [inhibitor, single point] |  |
| CC(C)(C)c1ccc(Oc2ccc(NC(=O)c3cccs3)cn2)cc1 | inconclusive [inhibitor, partial curve] |  |
| COc1cccc(CNC(=O)c2cc3c(=O)n(C)c4ccccc4c3n2C)c1 | inconclusive [inhibitor, single point] |  |
| CC(C)OC(=O)C1Cc2ccccc2CN1S(=O)(=O)c1cccs1 (stereo unspecified) | inconclusive [inhibitor, partial curve, poor fit] |  |
| COc1ccccc1CCNC(=O)CCc1c(C)c2cc3c(C)coc3cc2oc1=O | inconclusive [inhibitor, single point] |  |
| Cc1ccc(C)c(N2CCN(C(=O)c3cccn3-c3nnc(N4CCCCC4)s3)CC2)c1 | active: 14.6 µM |  |
| COc1ccc(C(=O)N/N=C/c2ccc(N3CCOCC3)s2)cc1OC |  | inconclusive: -34.8% [inhibitor] |
| CCOC(=O)CC1C(=O)NCCN1C(=S)NC(=O)c1ccc(C)c(Br)c1 (stereo unspecified) | active: 5.17 µM |  |
| CCn1c(SCC(=O)N2CCc3ccccc3C2)nc2sc(C)c(C)c2c1=O | active: 20.6 µM |  |
| CCN1CCCC1CNS(=O)(=O)c1c(C)cc(C)cc1C (stereo unspecified) |  | inactive: -45.3% |
| CN(C)c1ncnc2ccc(-c3cccnc3)cc12 | active: 23.1 µM |  |
| COc1cc(/C=C/C(=O)OCC(=O)c2ccc[nH]2)ccc1O |  | inactive: -24.4% |
| O=C(Cn1cnc2c(cnn2-c2ccc(Cl)cc2)c1=O)N1CCN(c2ccccc2)CC1 | inconclusive [inhibitor, single point] |  |
| CC(C)[C@H](NC(=O)OCc1ccccc1)C(=O)N[C@@H](Cc1c[nH]c2ccccc12)C(=O)O |  | inactive: 1.39% |
| COc1ccc(CCNC(=O)C2CC(c3cccc([N+](=O)[O-])c3)=NO2)cc1 (stereo unspecified) |  | inconclusive: -32.6% [inhibitor] |
| COc1ccc2cc(CNc3ccccc3)c(=O)n(CC(=O)Nc3ccc(C)cc3C)c2c1 | inconclusive [inhibitor, single point] |  |
| CSc1nc(N(C)NC(=O)c2ccccc2)c2ccccc2n1 | active: 0.517 µM |  |
| Cc1nc(Cl)sc1C(=O)Nc1cccc(Cl)c1C | inconclusive [inhibitor, single point] |  |
| COc1ccc(Nc2ccc(Nc3ccc(OC)cc3)nn2)cc1 |  | inactive: 1.88% |
| Cc1ccc(C(=O)CCNc2ccccc2)o1 | active: 8.2 µM |  |
| CCN1CCN(S(=O)(=O)c2ccc(Cl)c(C(=O)Nc3ccccc3N3CCOCC3)c2)CC1 |  | inactive: -14.8% |
| COc1ccccc1N(C)S(=O)(=O)c1ccc(C(=O)NCC(C)C)cc1 | inconclusive [inhibitor, single point] |  |
| O=C1S/C(=C\c2ccc(O)c([N+](=O)[O-])c2)C(=O)N1c1ccccc1Cl | inconclusive [inhibitor, partial curve, poor fit] |  |
